We go through 27 compounds from the supplement of paper PMC11880418.

Counter-ions that a name gives are not always drawn. The list shows a part of the results. The data scatter; read single values as rough.

Some test systems named below: MKN45; PANC1; SUM159; T84.
Holding throughout (experiment): ALDHbr (CSC) cell proportion score relative to DMSO vehicle (ratio to DMSO); breast (SUM159) / gastric (MKN45) / pancreatic (PANC1) / colon cancer lines; ALDHbr cells have high ALDH activity and are rich in cancer stem cells (CSC); higher = more CSC (ALDHbr) cells remaining
What all share (conditions): 10 µM; 72 h
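Also: High-content imaging of ALDEFLUOR-stained cells with Hoechst-labelled nuclei in 384-well plates, triplicate wells, scored as Z-score against 0.1% DMSO vehicle, negative meaning fewer ALDHbr cells.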

Regarding `Cc1c(C)c2c(c(C)c1O)CCC(C)(C(=O)O)O2` (stereo not drawn) [Trolox], the ALDHbr was determined as 0.99 with MKN45, 1.04 in the assay with PANC1, 0.998 in the assay on SUM159 and 1.09 in the assay with T84.
For the compound `CC(C)(Oc1ccc(Cl)cc1)C(=O)O` [Clofibric acid], the ALDHbr with MKN45 came out at 1.17; in the assay with PANC1 it was 0.979; with SUM159, 0.954; in the assay on T84 it was 0.972.
For `CCOc1ccc2nc(S(N)(=O)=O)sc2c1` [Ethoxzolamide], in that order: 0.179, 0.451, 0.336 and 0.529.
In the case of `N#Cc1ccc(C(c2ccc(C#N)cc2)n2cncn2)cc1` [Letrozole], the ALDHbr in the assay with MKN45 stood at 0.992; in the assay on PANC1 it was 0.925; in the assay on SUM159, 0.836; with T84 it was 0.91.
For `Clc1ccc2nsnc2c1NC1=NCCN1` [Tizanidine hydrochloride], the ALDHbr turned out to be 1.07 with MKN45, 1 in the assay on PANC1, 1.02 in the assay on SUM159 and 0.973 in the assay with T84.
For `CC[C@H]1OC(=O)C[C@@H](O)[C@H](C)[C@@H](O[C@@H]2O[C@H](C)[C@@H](O[C@H]3C[C@@](C)(O)[C@@H](O)[C@H](C)O3)[C@H](N(C)C)[C@H]2O)[C@@H](CC=O)C[C@@H](C)C(=O)/C=C/C(C)=C/[C@@H]1CO[C@@H]1O[C@H](C)[C@@H](O)[C@@H](OC)[C@H]1OC` [Tylosin], in that order: 1.13, 0.307, 1.05 and 0.919.
In the same order, the values of `CC=CC(=O)N(CC)c1ccccc1C` [Crotamiton] are 0.94, 1.07, 1.27 and 1.08.
For `O=C(O)Cc1sc(-c2ccccc2)nc1-c1ccc(Cl)cc1` [Fentiazac], the ALDHbr with MKN45 is 1.18; in the assay on PANC1, 1.02; with SUM159, 0.951; in the assay with T84, 0.786.
Take `CC1c2cccc(O)c2C(O)=C2C(=O)C3(O)C(O)=C(C(N)=O)C(=O)C(N(C)C)C3C(O)C21` (stereo not drawn) [Doxycycline hydrochloride]: the ALDHbr turned out to be 0.987 in the assay on MKN45, 0.631 with PANC1, 1.16 in the assay on SUM159 and 0.961 with T84.
For `Cc1onc(-c2ccccc2)c1C(=O)N[C@@H]1C(=O)N2[C@@H]1SC(C)(C)[C@@H]2C(=O)O` [Oxacillin sodium], in that order: 1.02, 0.796, 1.2 and 1.02.
For the compound `Cc1nc2ccccn2c(=O)c1CCN1CCC(C(=O)c2ccc(F)cc2)CC1` [Pirenperone], the ALDHbr is 1.2 in the assay with MKN45, 0.788 in the assay with PANC1, 0.93 in the assay on SUM159 and 0.98 in the assay on T84.
Turning to `Cn1c(=O)c2c(ncn2CC(=O)O)n(C)c1=O` [Acefylline], the ALDHbr with MKN45 was determined as 1.11; in the assay with PANC1, 0.846; with SUM159, 0.974; with T84, 0.869.
In the case of `NS(=O)(=O)c1cc2c(cc1Cl)N=C(CSCc1ccccc1)NS2(=O)=O` [Benzthiazide], the ALDHbr with MKN45 worked out at 0.916; with PANC1, 0.804; in the assay with SUM159, 1.07; with T84, 0.78.
In the same order, the values of `CCOc1ccccc1OCC1CNCCO1` (stereo not drawn) [Viloxazine hydrochloride] are 0.965, 0.968, 1.22 and 1.06.
For the compound `Clc1ccc(COC(Cn2ccnc2)c2ccc(Cl)cc2Cl)c(Cl)c1` (stereo not drawn) [Miconazole], the ALDHbr was found to be 1.04 in the assay on MKN45, 1.21 in the assay with PANC1, 1.12 in the assay with SUM159 and 0.996 in the assay on T84.
Take `CCOC(=O)NNc1nncc2ccccc12` [Todralazine hydrochloride]: the ALDHbr with MKN45 is 1.25; in the assay with PANC1 it was 1.11; in the assay on SUM159 it was 1.14; with T84, 0.963.
As to `COc1ccc2cc([C@@H](C)C(=O)O)ccc2c1` [(R) -Naproxen sodium salt], the ALDHbr in the assay on MKN45 amounted to 1.17; with PANC1, 1.02; with SUM159, 1.11; in the assay on T84 it was 0.999.
For `CC(C)CN(C[C@@H](O)[C@H](Cc1ccccc1)NC(=O)O[C@H]1CCOC1)S(=O)(=O)c1ccc(N)cc1` [Amprenavir], the ALDHbr is 0.966 in the assay with MKN45, 0.861 with PANC1, 1.1 with SUM159 and 0.899 in the assay with T84.
With `Clc1ccc(CSC(Cn2ccnc2)c2ccc(Cl)cc2Cl)cc1` (stereo not drawn) [Sulconazole nitrate], the ALDHbr came to 0.918 in the assay with MKN45, 1.72 with PANC1, 1.83 with SUM159 and 0.707 with T84.
With `C=CCc1ccccc1OCC(O)CNC(C)C` (stereo not drawn) [Alprenolol hydrochloride], the ALDHbr came out at 0.878 in the assay with MKN45, 0.984 in the assay with PANC1, 1.44 with SUM159 and 1.03 in the assay on T84.
`CN1C(C)(C)CCCC1(C)C` [Pempidine]: the ALDHbr in the assay on MKN45 came out at 0.883; in the assay on PANC1, 0.997; with SUM159, 0.997; in the assay with T84 it was 0.971.
`Nc1ccc(S(N)(=O)=O)cc1` [Sulfanilamide]: the ALDHbr in the assay with MKN45 is 1.04; in the assay with PANC1, 0.982; in the assay with SUM159 it was 0.861; in the assay with T84, 1.18.
Take `CC(=O)O[C@]1(C(C)=O)CC[C@H]2[C@@H]3C=C(Cl)C4=CC(=O)[C@@H]5C[C@@H]5[C@]4(C)[C@H]3CC[C@@]21C` [Cyproterone acetate]: the ALDHbr was found to be 0.684 in the assay on MKN45, 0.75 with PANC1, 0.768 with SUM159 and 0.984 in the assay on T84.
As for `CC(C)(C)NCC(O)c1cc(O)cc(O)c1` (stereo not drawn) [Terbutaline hemisulfate], the ALDHbr in the assay with MKN45 was 1.08; in the assay with PANC1, 0.741; in the assay with SUM159, 2.79; in the assay with T84, 0.917.
For `CN(C)c1nc(N(C)C)nc(N(C)C)n1` [Altretamine], in that order: 1.02, 1.02, 1.02 and 0.909.
For `CC(C)NCC(O)c1cc(O)cc(O)c1` (stereo not drawn) [Metaproterenol sulfate, orciprenaline sulfate], the ALDHbr was 0.963 in the assay with MKN45, 0.886 in the assay with PANC1, 2.6 in the assay on SUM159 and 1.05 with T84.
With `COc1ccc(C(=O)CC(=O)c2ccc(C(C)(C)C)cc2)cc1` [Avobenzone], the ALDHbr was determined as 0.65 in the assay on MKN45, 1.15 with PANC1, 1.03 with SUM159 and 0.873 with T84.
